Test results reported in PMC4336329 (PLoS ONE, 2015).
The whole screen tested about 310,000 compounds, of which about 2,200 (0.71%) showed an effect of 50% or more. The effect is printed as a negative number. This is one part of the list.

These compounds were tested against human ether-à-go-go-related gene (hERG) potassium channel (human, UniProt Q12809) (assay: primary screen, population patch clamp on CHO cells stably expressing hERG).
Chain of human ether-à-go-go-related gene (hERG) potassium channel (Q12809 whole entry, looked up): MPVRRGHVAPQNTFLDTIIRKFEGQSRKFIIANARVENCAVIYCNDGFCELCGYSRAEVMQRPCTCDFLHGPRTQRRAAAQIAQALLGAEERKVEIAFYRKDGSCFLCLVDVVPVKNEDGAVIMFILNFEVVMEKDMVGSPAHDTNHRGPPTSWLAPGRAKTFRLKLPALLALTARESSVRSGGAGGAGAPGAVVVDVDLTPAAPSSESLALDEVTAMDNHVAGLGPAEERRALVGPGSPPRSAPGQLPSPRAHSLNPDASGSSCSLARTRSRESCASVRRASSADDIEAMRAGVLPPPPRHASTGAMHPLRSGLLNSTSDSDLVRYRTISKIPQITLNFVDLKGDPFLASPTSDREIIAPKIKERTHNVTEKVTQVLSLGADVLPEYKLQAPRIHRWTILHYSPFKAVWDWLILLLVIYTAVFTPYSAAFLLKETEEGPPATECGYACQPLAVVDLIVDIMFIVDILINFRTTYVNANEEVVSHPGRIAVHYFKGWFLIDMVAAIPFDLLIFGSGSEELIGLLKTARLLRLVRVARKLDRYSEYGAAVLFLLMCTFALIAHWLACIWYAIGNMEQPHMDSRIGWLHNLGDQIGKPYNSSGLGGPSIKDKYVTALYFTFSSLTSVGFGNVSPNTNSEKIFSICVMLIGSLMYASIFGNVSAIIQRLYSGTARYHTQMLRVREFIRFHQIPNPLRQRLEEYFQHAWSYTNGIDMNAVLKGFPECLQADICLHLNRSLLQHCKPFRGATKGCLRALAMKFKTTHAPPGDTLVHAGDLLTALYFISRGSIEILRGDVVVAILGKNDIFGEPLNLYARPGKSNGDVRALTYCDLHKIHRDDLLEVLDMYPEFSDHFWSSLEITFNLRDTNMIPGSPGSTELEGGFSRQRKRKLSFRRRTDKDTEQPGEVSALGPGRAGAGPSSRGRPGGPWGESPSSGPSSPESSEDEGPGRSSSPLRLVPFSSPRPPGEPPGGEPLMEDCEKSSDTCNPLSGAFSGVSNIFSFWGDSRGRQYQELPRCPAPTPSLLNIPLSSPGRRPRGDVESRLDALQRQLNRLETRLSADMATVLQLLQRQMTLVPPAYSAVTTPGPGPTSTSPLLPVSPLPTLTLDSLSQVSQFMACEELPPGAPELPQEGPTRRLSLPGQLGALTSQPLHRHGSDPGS

Compound | hERG current change (%, negative = inhibition) at 1uM
CC1CCN(C(=O)CSc2nnc3c(n2)[nH]c2ccccc23)CC1 | 7.11%
O=C(Nc1ccccc1C(=O)N1CCN(Cc2ccccc2)CC1)c1ccc(F)cc1 | -6.84%
O=C1CN(S(=O)(=O)c2ccc(Cl)cc2)CC(=O)N1CCc1ccccc1 | 8.9%
Cn1ccnc1SCC(=O)Nc1cccc([N+](=O)[O-])c1 | 6.96%
CCn1c(-c2ccccc2)ccc(C#N)c1=O | 3.55%
CCN(C(=O)COC(=O)c1c(-c2ccccc2)noc1C)C1CCS(=O)(=O)C1 (centres unmarked) | -10.7%
Cc1c(NC(C)c2ccccc2O)c(=O)n(-c2ccccc2)n1C (centres unmarked) | 10.2%
Cc1ccc(NC(=O)N/C=C/c2ccccc2)cc1 | 13.1%
COc1ccc(NC(=O)Nc2ccc(Br)cn2)cc1 | 17.2%
O=C(CSc1nnc(-c2cccs2)o1)N1CCCCC1 | 7.04%
CCOc1ccc(C2C(C(=O)OC)=CN(CCOC)C=C2C(=O)OC)cc1 | 7.84%
COCCNC(=S)N1CCN(C/C=C/c2ccccc2)CC1 | 28.8%
COc1ccc(CCNc2ccc(S(N)(=O)=O)cn2)cc1 | 16%
CC1(C)OC(c2ccccc2)=C/C(=C/C=C2C(=O)NC(=S)NC2=O)O1 | 2.1%
COc1ccc(Nc2cc(Nc3ccc(OC)cc3)ncn2)cc1 | 7.83%
Cn1c(=O)c2c(nc(CN3CCN(C(c4ccccc4)c4ccccc4)CC3)n2CCCO)n(C)c1=O | 9.79%
Cc1nn(-c2ccccc2)c(C)c1Cc1ccc(O)cc1 | 12.3%
CCc1ccc(CNC(=O)Cc2ccc(NC(=O)C3=C(C)OCCS3)cc2)cc1 | 25.4%
Cc1nnc(CN(C)C(=O)c2cc(COc3ccc(F)cc3Cl)on2)o1 | 3.7%
CCC(O)c1cc2c(cc1NC(=O)c1cccs1)OCCO2 (centres unmarked) | 5.82%
Cc1ccccc1C(=O)Nc1cccc(C(=O)Nc2ccccc2C(=O)O)c1 | 14.1%
COc1ccc(NC(=O)CCCN2C(=O)C3C4C=CC(C4)C3C2=O)c(OC)c1 (centres unmarked) | 1.46%
CCOc1cc(/C=N/NC(=O)c2cc3c(ccc4ccccc43)o2)ccc1O | 14.3%

Compound | hERG current change (%, negative = inhibition) at 1uM
Cc1cccc(C)c1OCc1cc(C(=O)NCC2CC2)no1 | 10.8%
Cc1cc(NC(=O)C2CC(=O)N(c3cccc(C)c3C)C2)no1 (centres unmarked) | 6.32%
COc1ccc2[nH]cc(CCNC(=O)Nc3ccccc3)c2c1 | 16.2%
Cc1ccc(-n2ncc(C(=O)Nc3cc(Cl)ccc3C)c2C2CCNCC2)cc1C.Cl | 0.625%
O=C(CSc1n[nH]c(-c2ccccc2O)n1)N1CCCc2ccccc21 | 18.3%
Cc1c(C)c2c(OCC(=O)NCc3ccco3)cc3c(c2oc1=O)CCC(C)(C)O3 | 14.2%
Cn1c(SCc2ccccc2)nc(N)c(N=O)c1=O | -6.82%
CCOc1ccccc1N1CCN(C(=O)c2ccc(S(=O)(=O)Nc3ccccc3)cc2)CC1 | 20.4%
COc1ccc(NS(=O)(=O)c2ccc(OC)c(OC)c2)cc1OC | 17.3%
O=C(N/N=C/c1cccnc1)c1ccc(NC(=O)c2ccc(F)cc2)cc1 | 12.5%
CCOC(=O)c1[nH]c2c(c1C)C(=O)CC(c1ccco1)C2 (centres unmarked) | 4.54%
C=CCn1c(SCC(=O)NC(=O)c2cccc([N+](=O)[O-])c2)nnc1-c1ccccc1F | 11.3%
Cc1nn(-c2ccccc2)c2c1C1(C(=O)N(C(C)C)c3ccccc31)C(C#N)=C(N)O2 (centres unmarked) | 3.34%
CCOc1ccc(C(=O)NC(=S)Nc2cccc(S(=O)(=O)NC3=NCCC3)c2)cc1 | 6.67%
COc1ccc(CCN2C(=O)CC(NNC(=O)c3cccc(O)c3)C2=O)cc1 (centres unmarked) | 9.76%
CC(C)C(NC(=O)c1ccccc1)C(=O)OCC(=O)N1CCCC1 (centres unmarked) | 5.16%
CCN(CC(=O)Nc1ccc(OC)cc1)CC(=O)Nc1sc2c(c1C(=O)OC)CCCC2 | 9.08%
Cc1ccc(C)c(OCC(=O)Nc2cc(NC(=O)COc3cc(C)ccc3C)cc(C(=O)O)c2)c1 | 17.7%
CCOC(=O)c1c(C)[nH]c(C(=O)OCc2c(C)noc2C)c1C | 11.2%
Cc1nn(CCCC(=O)NCCc2ccccc2)c(C)c1[N+](=O)[O-] | -1.22%
CCOc1ccc(NC(=O)C(C)Oc2ccc(C#N)cc2)cc1S(=O)(=O)N1CCCC1 (centres unmarked) | -0.263%
COc1ccc(S(=O)(=O)N2CCC(n3cnc4ccccc43)CC2)cc1 | -6.31%
Cc1ccc(NC2c3ncccc3C(=O)N2c2ccccc2C)cc1C (centres unmarked) | 14.4%

Compound | hERG current change (%, negative = inhibition) at 1uM
COc1cccc(C(=O)NCc2ccc3c(c2)cc(C)n3C)c1 | 15%
Cc1csc(SCC(=O)NC(=O)NC(C)(C)C)n1 | 11.5%
CC(C)(C)c1ccc(-c2noc(C(=O)NN)n2)cc1 | 13.4%
NC(=O)C1CCN(C(=O)CCNS(=O)(=O)c2ccccc2F)CC1 | 5.35%
Cc1nc2c(C(=O)NCc3ccc4c(c3)OCO4)cnn2c(C)c1Cc1ccc(F)cc1Cl | -8.71%
Cc1ccc(C)c(NC(=S)NCCc2cnc[nH]2)c1 | 9.12%
O=C(Nc1ccccn1)c1ccc2ccccc2n1 | 3.73%
C/C(CC(=O)Nc1ccccn1)=N\NC(=O)c1ccc2ccccc2c1 | 16.2%
CCOc1ccc(S(=O)(=O)NCCCl)cc1 | 11.6%
CC1=NN(C(=O)COc2ccc(C)c(C)c2)C(O)(c2ccc(Cl)cc2)C1 (centres unmarked) | 5.76%
CN(C)C(=O)OCc1n(C)cc[n+]1C.Cc1ccc(S(=O)(=O)[O-])cc1 | 13.4%
CCCSCCCNC(=O)CN1C(=O)COc2ccc(S(=O)(=O)N3CCCC3)cc21 | 11.9%
O=C1NC(=O)C(C(CC(=O)c2ccccc2)c2ccccc2)C(=O)N1 (centres unmarked) | 14.3%
COc1ccc(CCNc2nc3ccc(C)cc3n3cnnc23)cc1OC | 8.38%
O=C(Nc1ncc2c(n1)-c1ccccc1CC2)c1cccc(Cl)c1 | 5.84%
CC(C)(C)NC(=O)CSc1nnc(-c2ccncc2)o1 | 3.34%
Cc1cc(NC(=O)CSc2nnc(-c3cccnc3)n2N)no1 | 6.86%
Cc1ccc(-c2nn(-c3ccccc3)cc2CN(Cc2ccccc2)C(=O)CCC(=O)O)o1 | 11.4%
Cc1cc(C(=O)N/N=C/c2cc(Br)ccc2OC(=O)c2ccc(Br)cc2)n[nH]1 | 4.08%
CC(C)Nc1ncnc2ccc(Br)cc12 | 12.6%
O=C(CCCc1c[nH]c2ccccc12)N1CCN(S(=O)(=O)c2cccs2)CC1 | -1.01%
Cc1ccccc1OCC(O)CN(CCO)Cc1ccccc1.Cl (centres unmarked) | -7.48%
NC(=O)CSc1nnc(COc2cccc3ccccc23)o1 | 7.91%

Compound | hERG current change (%, negative = inhibition) at 1uM
CCNc1oc(-c2ccc(OC)cc2)nc1S(=O)(=O)c1ccc(Br)cc1 | 1.36%
CCOC(=O)CCn1cc(F)c(=O)n(Cc2ccccc2)c1=O | 8.36%
CC(=O)N/C(=C\c1ccccc1)C(=O)OCC(=O)N(CC(C)C)c1c(N)n(Cc2ccccc2)c(=O)[nH]c1=O | 9.2%
CCc1c(C)c(C#N)c2[nH]c3ccccc3n2c1=S | 10.5%
COc1ccc(CCNC(=O)c2c(O)c3c([nH]c2=O)CCCC3)cc1OC | 5.09%
Cc1[nH]c(=S)n(CC2CCCO2)c1C (centres unmarked) | -19.5%
O=C(Nc1ccccc1)OCCNC(=O)c1ccccc1 | 3.96%
N=P(N1CCOCC1)(N1CCOCC1)C12CC3CC(CC(C3)C1)C2 | 15.7%
CCC1=NN(C(=O)c2ccc(C)cc2)C(O)(c2ccc(Br)cc2)C1 (centres unmarked) | 7.75%
NC(=O)/C(N=Nc1ccccc1)=N/Nc1ccccc1 | 7.1%
CSCCC(N=C1NS(=O)(=O)c2ccccc21)C(=O)NCc1ccccc1F (centres unmarked) | 4.89%
CN(C)C(=O)CSc1ccccc1C(=O)OCC(=O)NC1CC1 | 2.26%
NC(=O)CCn1c(C(=O)c2ccc(Cl)cc2)c2ccccc2[n+]1[O-] | 6.92%
COc1ccc(OC)c(S(=O)(=O)Nc2ccccc2C(=O)O)c1 | 6.96%
CCS(=O)(=O)N1N=C(c2cccc(NS(C)(=O)=O)c2)CC1c1ccccc1 (centres unmarked) | -5.65%
Cc1cccc(/C=C/C(=O)c2cc(Br)ccc(=O)c2O)c1 | 21%
CN1CCN(c2oc(-c3cccs3)nc2S(=O)(=O)c2ccccc2)CC1 | -0.0938%
Cc1ccc(Sc2ccc([N+](=O)[O-])cc2[N+](=O)[O-])nc1 | 7.83%
CCOC(=O)c1c(S(=O)(=O)NCc2ccco2)c(C)n(C)c1C | 9.49%
Cc1cccc(C)c1NC(=S)N=Nc1c(O)n(C)c2ccc(S(=O)(=O)N3CCOCC3)cc12 | 18.5%
